{"source": "PubChem BioAssay AID1345082", "about": "(National Center for Advancing Translational Sciences (NCATS), 2018)", "note": "Screen size: about 94,000 compounds; about 4,000 (4.3%) were called active. This list was built around the results that the source calls inconclusive (neither active nor inactive); the mix of calls is not that of the screen. Calls follow the shape of the dose curve; as a rule, active = well fitted inhibition curve with a large enough effect; inconclusive = small, poorly fitted or top-dose-only effect; inactive = no such curve, though single readings can be large or run the other way. Potencies beside an inconclusive call are fits to weak or partial responses and may not hold up. % is scaled to controls: 0 for no effect and ±100 for the full control effect; potency is read from the fitted curve at half-maximal effect; tags tell the direction and shape of the fitted curve."}
{"experiment": "Cytotoxic Profiling in NIH 3T3 Cell Line of Diverse Libraries Using Quantitative High-Throughput Screening; also: nearly all actives have a fitted effect of over 55% in size", "details": "NIH 3T3 viability, CellTiter-Glo ATP luminescence, 48-72 h; activity change, negative = cytotoxicity: at 96.7 µM (top of the series) unless noted; series mostly up to 96.7 µM", "method_in_brief": "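Viability of NIH 3T3 cells after 48 or 72 hr compound treatment at 37 °C was assessed by CellTiter-Glo, with luminescence imaged following a 10 min room-temperature step.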"}
{"smiles": "O=c1c2nc(OCc3ccc(C(F)(F)F)cc3)ccc2ncn1C1CC1", "Potency": "inconclusive: 63.1 µM [inhibitor, partial curve, poor fit]"}
{"smiles": "COCC(=O)NC[C@@H]1C=C(C)[C@H](Cc2nc3ccc(Cl)cc3[nH]2)C[C@H]1C(C)C", "Potency": "active: 70.8 µM"}
{"smiles": "O=C(CCc1ccc2c(c1)CCO2)Nc1ccc2c(c1)C(=O)N1CCC[C@H]1C(=O)N2", "Potency": "inconclusive: 50.1 µM [inhibitor, single point]"}
{"smiles": "COCCNc1ncc(-c2ccsc2)c2c1OCC2", "Potency": "inconclusive: 112 µM [inhibitor, single point]"}
{"smiles": "O=C1CC(c2ccccc2)N(C(=O)CCc2ccccc2)CCCCCCN1", "note": "(stereo unspecified)", "Potency": "inconclusive: 50.1 µM [inhibitor, partial curve, poor fit]"}
{"smiles": "COCCNC(=O)[C@H]1C[C@H](Oc2ccccc2)CN1Cc1cccn1C", "activity change, negative = cytotoxicity": "inactive: -1.37%"}
{"smiles": "Cc1noc(C)c1-c1cc2c(cc(C)n2CCN(C)C)c(-c2ccc(CO)cc2)n1", "Potency": "inconclusive: 10 µM [inhibitor, full curve, poor fit]"}
{"smiles": "COC(=O)C1=C(C)N=C2SC=C(CC(=O)Nc3ccc(OC)cc3)N2C1c1cccc(OC)c1", "note": "(stereo unspecified)", "Potency": "inconclusive: 44.7 µM [inhibitor, partial curve, poor fit]"}
{"smiles": "CC(=O)Nc1cccc(-c2ccnc(-c3nnc(C)n3-c3ccccc3)c2)c1", "activity change, negative = cytotoxicity": "inactive: -21.3% [at 138 µM]"}
{"smiles": "CN(C)C[C@@H]1CN(c2ncccn2)C[C@H]1NC(=O)CCCc1ccccc1", "activity change, negative = cytotoxicity": "inactive: -8.13%"}
{"smiles": "CCn1nccc1C(=O)N1C[C@@H](Oc2ccccc2)C[C@@H]1C(=O)NC", "outcome": "inactive"}
{"smiles": "Cn1cc(CCCC(=O)Nc2ccc3c(c2)C(=O)N2CCC[C@H]2C(=O)N3)c2ccccc21", "Potency": "inconclusive: 50.1 µM [inhibitor, partial curve, poor fit]"}
{"smiles": "Cc1nc(-c2ccccc2)n(Cc2ccc(F)c(F)c2)c(=O)c1CCO", "Potency": "inconclusive: 50.1 µM [inhibitor, partial curve, poor fit]"}
{"smiles": "Cc1ccsc1-c1[nH]nc2ncc(-c3ccccc3)nc12", "Potency": "inconclusive: 31.6 µM [inhibitor, partial curve, poor fit]"}
{"smiles": "O=C(O)[C@@H]1CN(Cc2ccccc2)C[C@@H]1C(=O)N1CCc2ccccc21", "activity change, negative = cytotoxicity": "inactive: -1.17%"}
{"smiles": "COc1ccc(-c2cccc(C(=O)N3CCC(NC(=O)c4c(C)noc4C)CC3)c2)nn1", "activity change, negative = cytotoxicity": "inactive: -25.6%"}
{"smiles": "COc1ccc(-c2noc(-c3nnn4c3COC(c3ccc(Cl)cc3)C4)n2)c(OC)c1", "note": "(stereo unspecified)", "activity change, negative = cytotoxicity": "inactive: -10%"}
{"smiles": "FC1(c2nc(-c3ccccc3)no2)CCN(C2CCOCC2)CC1", "Potency": "inconclusive: 44.7 µM [inhibitor, partial curve, poor fit]"}
{"smiles": "COc1ccc(-c2ccc3nc(-c4ccccc4)oc3c2)c(OC)c1OC", "Potency": "inconclusive: 50.1 µM [inhibitor, partial curve, poor fit]"}
{"smiles": "O=C(c1ccccc1Cl)N1CCN(Cc2ccccc2-c2cccnc2)CC1", "Potency": "inconclusive: 50.1 µM [inhibitor, partial curve, poor fit]"}
{"smiles": "Cc1ccc2oc([C@H]3CCN(Cc4ccccn4)C3)nc2c1", "Potency": "inconclusive: 112 µM [inhibitor, partial curve, poor fit]"}
{"smiles": "CC1CCN(CC2CCCCCN2C(=O)Nc2ccc3c(c2)OCCO3)CC1", "note": "(stereo unspecified)", "activity change, negative = cytotoxicity": "inactive: -13.7%"}
{"smiles": "COc1ccc(C(=O)N2CCC(c3nn(-c4ccccc4)c(=O)[nH]3)CC2)cc1", "activity change, negative = cytotoxicity": "inactive: -19.8%"}
{"smiles": "COc1ccc(Cn2c(=O)c(C(=O)NCc3ccc(Cl)cc3)nc3cccnc32)cc1", "Potency": "inconclusive: 44.7 µM [inhibitor, partial curve, poor fit]"}
{"smiles": "CN1CCCN(C(=O)c2ccccc2)c2ccccc21", "Potency": "inconclusive: 79.4 µM [inhibitor, partial curve, poor fit]"}
{"smiles": "CCc1[nH]c2c(CNC(=O)C3(C)CCCCO3)cc(F)cc2c1C", "note": "(stereo unspecified)", "Potency": "inconclusive: 39.8 µM [inhibitor, partial curve]"}
{"smiles": "CCN1c2cc(C(=O)Nc3ccccc3OC)ccc2C(=O)N2CCCCCC21", "note": "(stereo unspecified)", "Potency": "inconclusive: 70.8 µM [inhibitor, single point]"}
{"smiles": "COc1ccc(CC(=O)Nc2cc(-c3ccncc3)nn2-c2ccccc2)cc1", "Potency": "inconclusive: 39.8 µM [inhibitor, partial curve]"}
{"smiles": "O=C(Nc1ccc(F)cc1F)c1cc(-c2ccc[nH]2)n[nH]1", "activity change, negative = cytotoxicity": "inactive: -24.4%"}
{"smiles": "CN(Cc1ccc(-c2ccccc2)cc1)CC1CC1", "Potency": "inconclusive: 89.1 µM [inhibitor, partial curve, poor fit]"}
{"smiles": "O=C(O)CCC1CCN(S(=O)(=O)c2ccccc2F)CC1", "Potency": "inconclusive: 70.8 µM [inhibitor, single point]"}
{"smiles": "CC(c1ccon1)N(C)C(=O)c1cccc(CC2CCNCC2)c1", "note": "(stereo unspecified)", "activity change, negative = cytotoxicity": "inactive: 2.56%"}
{"smiles": "O=C(N[C@@H]1CN(C(=O)c2ccsc2)C[C@H]1CO)c1ccccc1", "activity change, negative = cytotoxicity": "inactive: -8.09%"}
{"smiles": "CC(=O)Nc1ccc(CN2CCN(c3cc(Cl)ncn3)C(=O)C2)cc1", "Potency": "active: 35.5 µM"}
{"smiles": "O=C(NC1CCN(c2cc(-c3ccccc3)[nH]n2)C1)c1ccc(F)c(F)c1", "note": "(stereo unspecified)", "Potency": "inconclusive: 50.1 µM [inhibitor, partial curve, poor fit]"}
{"smiles": "CN(C)C(=O)c1nc(-c2ccc(Cl)cc2Cl)c2cnccn12", "activity change, negative = cytotoxicity": "inactive: -16%"}
{"smiles": "CC1CCN(CC2CCCN(C(=O)NC3CCCCC3)CC2)CC1", "note": "(stereo unspecified)", "activity change, negative = cytotoxicity": "inactive: -26.8%"}
{"smiles": "Cn1cc(-c2cccc(Cl)c2)c2nc(CN3CC[S+](=O)([O-])CC3)cn2c1=O", "Potency": "inconclusive: 79.4 µM [inhibitor, partial curve]"}
{"smiles": "CCc1ccc(CNC(=O)c2cc3n(n2)CC(c2ccc4c(c2)OCO4)OC3)cc1", "note": "(stereo unspecified)", "Potency": "inconclusive: 39.8 µM [inhibitor, partial curve]"}
{"smiles": "Cc1cc(C)c(CNC(=O)c2nc(-c3cccc(O)c3)cc3c2ccn3C)c(=O)[nH]1", "Potency": "active: 25.1 µM"}
{"smiles": "CNC(=O)c1cc(C2CC2)nc2c1c(C1CCN(C(=O)CN(C)C)CC1)nn2C", "activity change, negative = cytotoxicity": "inactive: -3.01%"}
{"smiles": "Cc1ccc2c(C)c(C(=O)N(C)Cc3noc4c3CCCC4)oc2c1", "Potency": "inconclusive: 89.1 µM [inhibitor, partial curve, poor fit]"}
{"smiles": "COC(=O)N(C)Cc1cccc(N2CCN(C(C)c3ccccc3)CC2)c1F", "note": "(stereo unspecified)", "Potency": "inconclusive: 50.1 µM [inhibitor, partial curve, poor fit]"}
{"smiles": "CCN(CC)[C@H]1[C@@H]2OC[C@@H](O2)[C@@H](NCC2CCCCC2)[C@@H]1O", "activity change, negative = cytotoxicity": "inactive: -19.5% [at 174 µM]"}
{"smiles": "O=C1NC2(CCN(Cc3ccccc3)CC2)COc2ccccc21", "Potency": "inconclusive: 89.1 µM [inhibitor, partial curve, poor fit]"}
{"smiles": "O=C(Nc1ccc(-c2nnc3n2CCCC3)cc1)c1ccc(F)c(F)c1", "activity change, negative = cytotoxicity": "inactive: -7.92%"}
{"smiles": "O=C(N1CCN(C/C=C/c2ccccc2)CC1)C12CNCC1CNC2", "note": "(stereo unspecified)", "Potency": "inconclusive: 50.1 µM [inhibitor, partial curve, poor fit]"}
{"smiles": "O=C(NCc1cccc(C(F)(F)F)c1)c1ccc2nnc(-c3ccc(F)cc3)n2c1", "Potency": "inconclusive: 44.7 µM [inhibitor, partial curve, poor fit]"}
{"smiles": "Cc1c(CC(=O)NC2CCOCC2)c2c(n1CCc1ccccc1)CCCC2=O", "activity change, negative = cytotoxicity": "inactive: -1.95%"}
{"smiles": "CCN1c2cc(C(=O)Nc3cc(C)ccc3C)ccc2C(=O)N2CCCCCC21", "note": "(stereo unspecified)", "Potency": "inconclusive: 44.7 µM [inhibitor, partial curve, poor fit]"}
{"smiles": "CN1CCN(c2cc(=O)c3ccnc(-c4cccc(CO)c4)c3o2)CC1", "Potency": "inconclusive: 20 µM [inhibitor, partial curve, poor fit]"}
{"smiles": "Cc1cc(C)c(CNC(=O)c2cc(-c3cnn(C)c3)cc3c2OCCN3C)c(=O)[nH]1", "Potency": "inconclusive: 89.1 µM [inhibitor, partial curve, poor fit]"}
{"smiles": "O=C(C1CCCN1Cc1ccc(-c2cncnc2)cc1)N1CCCC1", "note": "(stereo unspecified)", "activity change, negative = cytotoxicity": "inactive: -0.334%"}
{"smiles": "CN1C(=O)C2(CCN(S(=O)(=O)c3ccc(F)cc3)C2)c2ccccc21", "note": "(stereo unspecified)", "activity change, negative = cytotoxicity": "inactive: -6.27%"}
{"smiles": "C[C@H]1[C@@H]2[C@@H](O)C([C@H](C)C(=O)N(C)CCC#N)CC[C@@]2(C)CC[C@@H]1NC(=O)c1ccncc1", "note": "(stereo partly specified)", "Potency": "inconclusive: 126 µM [inhibitor, single point]"}
{"smiles": "O=C([C@@H]1C[C@H](Oc2ccccc2)CN1C(=O)c1cc2ccccc2[nH]1)N1CCCC1", "activity change, negative = cytotoxicity": "inactive: -12.9%"}
{"smiles": "O=C(C1CCCC1)N1CC2(CCN(Cc3cccnc3)CC2)Cc2ccccc21", "Potency": "inconclusive: 56.2 µM [inhibitor, partial curve, poor fit]"}
{"smiles": "O=C(NC1CCCN(c2cc(-c3ccc(Cl)cc3)[nH]n2)C1)c1cccnc1", "note": "(stereo unspecified)", "Potency": "inconclusive: 70.8 µM [inhibitor, single point]"}
{"smiles": "O=C1NC2(CN(CC3CCCCC3)C2)Oc2ccccc21", "Potency": "inconclusive: 39.8 µM [inhibitor, partial curve, poor fit]"}
{"smiles": "Cc1c(C(=O)N2CCOC(CCCC(C)C)C2)cnc2cc(=O)[nH]n12", "note": "(stereo unspecified)", "Potency": "inconclusive: 89.1 µM [inhibitor, single point]"}
{"smiles": "CC1=C[C@@H](CNC(C)C)[C@H](C(C)C)C[C@H]1Cc1nnc(C(C)(C)C)o1", "activity change, negative = cytotoxicity": "inactive: -5.12% [at 138 µM]"}
{"smiles": "Cc1ccc(-c2cc(C(=O)N3CCN(Cc4ccccc4)CC3)c3cnn(C)c3n2)c(C)c1", "Potency": "inconclusive: 50.1 µM [inhibitor, single point]"}
{"smiles": "COc1nc2nc(CCc3ccccc3)n(C)c2cc1-c1cccc(NC(C)=O)c1", "Potency": "inconclusive: 56.2 µM [inhibitor, partial curve, poor fit]"}
{"smiles": "CC(=O)c1ccc(C(=O)N2CCC3(CC2)OCCCC3O)s1", "note": "(stereo unspecified)", "outcome": "inactive"}
{"smiles": "COc1ccccc1N1CCCc2ncc(C(=O)Nc3ccc4[nH]ccc4c3)cc21", "Potency": "inconclusive: 50.1 µM [inhibitor, partial curve, poor fit]"}
{"smiles": "COc1ccc(-c2nnc([C@H]3CCN(S(=O)(=O)Cc4ccccc4)C3)o2)cc1", "Potency": "inconclusive: 89.1 µM [inhibitor, partial curve]"}
